Results are given in words; binding and its absence hold for the method and conditions named. Some binding calls cover weakened binding; strength is not graded here. Tags and fused reporters may be left off the sequences shown.

For four molecules, binding results are on record in publication PMC5618490, “Arabidopsis E3 Ubiquitin Ligases PUB22 and PUB23 Negatively Regulate Drought Tolerance by Targeting ABA Receptor PYL9 for Degradation” (International Journal of Molecular Sciences, 2017).

Experiment [1] concerns the target T1, MBP-PUB22 (Arabidopsis thaliana, UniProt Q9SVC6 1-435).
T1 construct: PUB22, plant U-box E3 ubiquitin ligase, Arabidopsis thaliana; Kept on the amylose resin for the pull-down; source: E. coli BL21 (DE3), purified (amylose resin); not shown: MBP, N-terminal, kept
T1 sequence (looked up): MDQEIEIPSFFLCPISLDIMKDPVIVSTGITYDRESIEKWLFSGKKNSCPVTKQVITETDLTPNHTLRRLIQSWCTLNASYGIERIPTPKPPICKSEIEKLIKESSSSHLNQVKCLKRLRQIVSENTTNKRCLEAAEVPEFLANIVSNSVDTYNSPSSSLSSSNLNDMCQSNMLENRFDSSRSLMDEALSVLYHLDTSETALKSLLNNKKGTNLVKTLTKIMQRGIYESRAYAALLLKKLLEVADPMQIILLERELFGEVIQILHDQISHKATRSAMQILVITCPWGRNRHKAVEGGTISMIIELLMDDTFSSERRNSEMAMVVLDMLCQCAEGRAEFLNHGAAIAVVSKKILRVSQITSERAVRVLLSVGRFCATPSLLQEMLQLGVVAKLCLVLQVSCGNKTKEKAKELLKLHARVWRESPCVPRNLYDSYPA
In words: pull-down; MBP-PUBs or MBP on amylose resin incubated with GST-PYLs for 1 h at room temperature in 20 mM Tris-HCl pH 7.2, 10 mM MgCl2, 2 mM DTT; washed five times; blot with anti-GST antibody; both purified.

The target in experiment [2] is T2, BD-PYL9 (Arabidopsis thaliana) (UniProt Q84MC7).
T2 sequence: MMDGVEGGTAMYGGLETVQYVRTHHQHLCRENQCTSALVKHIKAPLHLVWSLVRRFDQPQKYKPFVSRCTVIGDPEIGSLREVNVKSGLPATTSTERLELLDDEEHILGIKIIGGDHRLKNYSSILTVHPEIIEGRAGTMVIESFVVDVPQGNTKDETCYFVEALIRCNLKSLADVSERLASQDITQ
In words: two-hybrid; BD-PYLs (pGBKT7) with AD-PUBs (pGADT7) in yeast; growth on SC medium lacking Tryptophan, Leucine and Histidine.

Experiment [3] deals with T3, BD-PYL10 (Arabidopsis thaliana) (UniProt Q8H1R0).
T3 sequence: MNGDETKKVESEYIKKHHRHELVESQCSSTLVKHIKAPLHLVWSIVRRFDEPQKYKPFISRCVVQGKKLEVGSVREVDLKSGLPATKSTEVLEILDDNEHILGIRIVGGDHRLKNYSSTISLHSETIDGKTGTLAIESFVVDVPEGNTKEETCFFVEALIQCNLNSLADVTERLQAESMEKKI
The experiment is described as above.

Experiment [4] addresses T4, BD-PYL5 (Arabidopsis thaliana) (UniProt Q9FLB1).
T4 sequence: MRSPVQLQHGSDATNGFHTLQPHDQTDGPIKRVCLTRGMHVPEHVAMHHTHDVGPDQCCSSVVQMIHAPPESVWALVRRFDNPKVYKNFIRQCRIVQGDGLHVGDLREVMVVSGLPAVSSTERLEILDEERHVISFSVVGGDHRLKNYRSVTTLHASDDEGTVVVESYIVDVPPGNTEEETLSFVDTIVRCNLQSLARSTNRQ
Described as above.

Experiment [5] addresses T5, BD-PYL7 (Arabidopsis thaliana) (UniProt Q1ECF1).
T5 sequence: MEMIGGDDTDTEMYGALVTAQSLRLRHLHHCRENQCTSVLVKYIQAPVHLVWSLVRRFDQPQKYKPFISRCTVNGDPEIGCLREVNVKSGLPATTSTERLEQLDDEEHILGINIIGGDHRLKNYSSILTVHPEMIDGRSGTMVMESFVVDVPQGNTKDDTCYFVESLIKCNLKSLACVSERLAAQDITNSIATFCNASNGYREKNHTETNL
The description is as above.

The target of experiment [6] is T6, BD-PYL8 (Arabidopsis thaliana) (UniProt Q9FGM1).
T6 sequence: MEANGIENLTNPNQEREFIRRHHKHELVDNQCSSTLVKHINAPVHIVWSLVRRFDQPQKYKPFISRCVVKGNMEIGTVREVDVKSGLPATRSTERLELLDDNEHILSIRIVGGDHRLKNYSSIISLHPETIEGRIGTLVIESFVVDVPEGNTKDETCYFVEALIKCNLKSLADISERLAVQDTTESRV
The description is as above.

B1: GST-PYL10 (receptor, UniProt Q8H1R0 1-183)
chain: T3 sequence
For B1, the binding result in experiment [1] was “no binding”.

B2: AD-PUB18 (enzyme, UniProt Q9XIJ5 1-697)
chain: MIHTKTGSGRRILTFPTVEPSESISIVTLLDSLIQLAGDILTFKSKHFSTNKQSFRETLRRIQNLLVVFEEIRIRIRNSRRYFHDSAAASSLKEIHVGFQKLKFLLEDCTRDGARLCMMMNSDQVSDHLRVLTRSISTSLSAFPVASVDLTTEVNELIDLVVRQARKYGVQPETNDKRAVSSINRILALFVNRVVPDPDEINRILDHVGIRKWGDCVKEINFLGEEIDAERLDEKKKKSSDQVELLSSLMGFICYCRCIILGRIERDDHHNHHEDGIKKDHDLIRGLKVEDLLCPISLEIMTDPVVIETGHTYDRSSITKWFGSGNITCPITGKILTSTELVDNVSVRQVIRKHCKTNGIVLAGISRRRKSHDDVVPESLAAKGAGKLIAKFLTSELINGGEEMIYRAVREIRVQTKTSSFNRSCLVKAGAVTPLLKLLSSVDIRIQENAMAGILNLSKHVTGKSKIAGEGLKILVEILNEGAKTETRLYSASALFYLSSVEDYSRLIGENPDAIPGLMNIVKGDDYGDSAKRSALLAVMGLLMQSDNHWRVLAAGAVPILLDLLRSGEISGGLTADCLATLAKLAEYPDGTIGVIRRGGLKLAVKILSSSEDSPVAVKQHCVGLILNLCLNGGRDVVGVLVKNSLVMGSLYTVLSNGEYGGSKKASALIRMIHEFQERKTGSVEPNLQRGRFVHAW
For B2, the binding entry in experiment [2] is on record as “no binding”.

B3: AD-PUB23 (enzyme, UniProt Q84TG3 1-411)
chain: MSGGIMDEEIEIPPFFLCPISLEIMKDPVIVSTGITYDRDSIEKWLFAGKKNSCPVTKQDITDADLTPNHTLRRLIQSWCTLNASYGVERIPTPRPPICKSEIEKLIRDSASSHENQVKCLKRLRQIVSENATNKRCLEAAGVPEFLANIVSNDSENGSLTDEALNLLYHLETSETVLKNLLNNKKDNNIVKSLTKIMQRGMYESRVYATLLLKNILEVADPMQSMTLKPEVFTEVVQILDDRISQKATKAAMHILVNICPWGRNRHKAVEAGVISVIIELLMDESFTSERRGPEMAMVVLDLLCQCAEGRAEFLNHGAAIAVVCKKILRVSQTASDRAVRVLLSVGRFCATPALLHEMLQLGVVAKLCLVLQVSCGGKTKEKAKELLKLHARVWKDSPCLPKNMILAYPC
B3: the binding entry in experiment [2] is reported as “binds”.

B4: AD-PUB22 (enzyme, UniProt Q9SVC6 1-435)
chain: T1 sequence (looked up)
Turning to B4, the binding entry in experiment [3] was “no binding”; in experiment [4] it was “binds”; in experiment [5], “binds”; in experiment [6] it was “binds”.
